Measured values as given in the RNAGym collection of RNA variant scans (doi:10.7554/elife.90254).
The source gives no read counts; variants with many changes may rest on few reads.

B1: LINE1-mini (parent)
chain: GGCAGAGCUCAACACAGCGUGGCAAAGUGGCUGUGGCUAGACUGCC

Variants of: B1
Assay: self-cleavage, relative activity (ratio to wild type); higher = more cleavage; in vitro, sequencing; the parent is a self-cleaving ribozyme

| Variant | self-cleavage |
| --- | --- |
| G1U A6C C18A A26G G40U | 0.02 |
| G1U C18A G29A G36A | 0.01 |
| G1U A11G C15A U34C | 0.04 |
| G1U C15U G17U A41U | 0.03 |
| G1U C15A G33A C37A | 0.09 |
| G1U C8G G44A | 0.05 |
| G1U A24C A25G | 0.35 |
| G1U C18A G19U | 0.08 |
| G1U A16G G21A U28C C37G U38C | 0.01 |
| G1U A11G A25C G27U A41C | 0 |
| G1U A14U A41G | 0.04 |
| G1U A6G G7C | 0.01 |
| G1U C8A A14U G29U C46A | 0.06 |
| G1U C8U C15A A16C G27U U28A C31A | 0.01 |
| G1U C3A A16G U32A G36A | 0.08 |
| G1U A6C C15G U34C | 0.02 |
| G1U C13U A41U G44C | 0.14 |
| G1U A12G C13U | 0.02 |
| G1U A6C G44A | 0.09 |
| G1U A6G C15A | 0.03 |
| G1U A26U C37U | 0.12 |
| G1U A11U U28G | 0.03 |
| G1U A4G G7U C23G | 0.11 |
| G1U A4U C31A | 0.02 |

| Variant | self-cleavage |
| --- | --- |
| G1U C8U C13A C15U C37U C46A | 0.14 |
| G1U A6C G17U | 0.01 |
| G1U C3A A25C U28A | 0.26 |
| G1U C3G A16C G21C G33U G44U | 0.05 |
| G1U C13A A24C A26G U32C | 0.03 |
| G1U C15G G33A A39U C46G | 0 |
| G1U C8A G27C | 0.04 |
| G1U A6G C23U | 0.05 |
| G1U A26G C31U U34C U38A | 0 |
| G1U C10U G33U G40A C45G | 0.02 |
| G1U C3G C15U G22U G30U G35C | 0.2 |
| G1U A24G U28A G29C C31U G36U | 0.02 |
| G1U A6C G7U C18A G33U U38A C45U | 0.01 |
| G1U C10A A12G A14C G36C C46U | 0 |
| G1U A12C G29U G35A G36A A41C | 0 |
| G1U A4C U9A C31G G35C | 0.01 |
| G1U A4C U34C | 0.04 |
| G1U A4U A11U C13A | 0.01 |
| G1U A11C C13A C37A | 0.01 |
| G1U C10A U20G G27A C46A | 0.03 |
| G1U A24U G29A U32G C46U | 0.44 |
| G1U A4G G5C G30U G40C C46U | 0.08 |
| G1U A16U G36A C45U | 0 |
| G1U C18A C42G | 0.1 |

| Variant | self-cleavage |
| --- | --- |
| G1U C10A C13A A14U G27C | 0 |
| G1U A12C C46A | 0.01 |
| G1U A4C A41G C46G | 0.13 |
| G1U C8U G36U | 0.12 |
| G1U C10A A12U G27A G29A | 0.01 |
| G1U A11G C13A G19C | 0.01 |
| G1U A4U A11C G22U C23A G33U C45A | 0.02 |
| G1U C13U G21U A25U G44A C46U | 0.02 |
| G1U A39C A41C | 0.04 |
| G1U A6C C13A | 0.01 |
| G1U A14C G21U U38A | 0.04 |
| G1U C10G G29U | 0.03 |
| G1U C3A U34A A39U | 0.02 |
| G1U C8G C10U U38A | 0.04 |
| G1U C15U A26U G35C | 0.07 |
| G1U C8U G19A A24G A25C | 0.08 |
| G1U C10U G30C | 0.18 |
| G1U C3G C18G G19A A25U G29C | 0.11 |
| G1U C3G C10A G35U U43C | 0.01 |
| G1U C13U U20C U34G | 0.03 |
| G1U C13G A39U | 0.02 |
| G1U C10G C13G C15A C23U A26U C37G C42A | 0.02 |
| G1U C3G G21U A26U A41U | 0.13 |
| G1U A26G G33A C37G | 0.03 |

| Variant | self-cleavage |
| --- | --- |
| G1U A11U C15A A26G G30U C37G | 0.02 |
| G1U A11C A25G C37G C45A | 0 |
| G1U C13U A41G C45G | 0.06 |
| G1U A24U U28C G33C | 0.08 |
| G1U A4G A41G | 0.16 |
| G1U A6G C46U | 0.07 |
| G1U A25U A26U | 0.29 |
| G1U A39C G40U | 0.03 |
| G1U C10G G17U C46A | 0.07 |
| G1U A26U G29U C42A | 0.11 |
| G1U C3U A4U C10A C23A C42A C46U | 0.03 |
| G1U C13U G40U G44U | 0.16 |
| G1U A14G A16U A39U | 0.03 |
| G1U C3U C13A | 0.2 |
| G1U C10A G33U A39G G40U | 0 |
| G1U C15G U32G | 0.03 |
| G1U A4C C10A C15U | 0.01 |
| G1U C8G G30C | 0.02 |
| G1U C3U A11C A24C U28C C31G | 0.02 |
| G1U A14C G19A G30C | 0.03 |
| G1U C10A A26C | 0.01 |
| G1U A4C C18G C23U G29A C31U C42U | 0.03 |
| G1U C13G C42A | 0.06 |
| G1U A11C G21U | 0.05 |

| Variant | self-cleavage |
| --- | --- |
| G1U A6C C8G C13A U34G G36A A39U G40U | 0 |
| G1U C13A A16U A26G C42U | 0.15 |
| G1U A12G U20A A39C | 0.01 |
| G1U C13A U38G | 0 |
| G1U C3G C8A G33U | 0.15 |
| G1U C8U C10G G30U G35C | 0.01 |
| G1U A16C C46A | 0.04 |
| G1U C8U C18G A26G G27U | 0.19 |
| G1U C3A G33C U34C U38G | 0.09 |
| G1U C3A G17U C42G | 0.43 |
| G1U C3U G7A A24C | 0.14 |
| G1U C10A A12U A14C G35U | 0.02 |
| G1U A12C G29U | 0.05 |
| G1U C8A A25U | 0.06 |
| G1U C8G U34G | 0.05 |
| G1U A4G C13A A14C G40U | 0.04 |
| G1U A14G U34C | 0.33 |
| G1U C3A A6U G27C C31U A41G C46G | 0.07 |
| G1U C10A G29C U32A | 0.03 |
| G1U C8A A16C A26U A41G | 0.06 |
| G1U C10G G21A C23A G30C A41C | 0.01 |
| G1U C8G U9C C10G | 0.01 |
| G1U A6C G7C U9A C13U G29U | 0.05 |
| G1U A24G A39G | 0.02 |

| Variant | self-cleavage |
| --- | --- |
| G1U C3A G7U U9A C10A U32A G33C | 0.14 |
| G1U C13G G19C | 0.06 |
| G1U A14U C42G | 0.08 |
| G1U A11U G22A G33A C37A | 0.01 |
| G1U A14G G22U U38G C46A | 0 |
| G1U A4C C31U | 0.03 |
| G1U C8U C10G C13U G21U | 0.02 |
| G1U A16C G36U G44A | 0.05 |
| G1U C10A C18A G19C C23A | 0 |
| G1U C8U A11U A12U C31A A41G | 0 |
| G1U A24G A41C | 0.02 |
| G1U C8A U9C C15U | 0.01 |
| G1U A26U C31A | 0.03 |
| G1U C8U C13G C42A | 0.02 |
| G1U C13A C18U | 0.01 |
| G1U A16G U32A G35U | 0.03 |
| G1U A16G G21U C46U | 0.16 |
| G1U C10U C15G G22C G27U A39C | 0.01 |
| G1U C15U G29A | 0.31 |
| G1U A25C G33A | 0.02 |
| G1U C10U U32A | 0.02 |
| G1U C8A G21A G27U | 0.1 |
| G1U A12C G22U G29C | 0 |
| G1U A12C U38A A39U | 0.01 |

| Variant | self-cleavage |
| --- | --- |
| G1U A12C U20A G44A | 0 |
| G1U C8A U20G G30C G44A | 0.17 |
| G1U C8A G22A A24C G44A | 0.11 |
| G1U A4C G21U G33U | 0.04 |
| G1U A6U C10A | 0.01 |
| G1U C3G A6G C13G A14U U28C A39U | 0.02 |
| G1U A4C C13A | 0.06 |
| G1U A26U G27A C31U | 0.05 |
| G1U A4C G17U C37G U38C G40A | 0.01 |
| G1U C3G A16C C18A A24U G30A | 0.09 |
| G1U C3A C10A A16C C18A | 0.03 |
| G1U C15G U20A G36U | 0.02 |
| G1U C8U A25C C37G U38G | 0 |
| G1U A11U C13U | 0 |
| G1U C3A A12C A16C C18A G35A C37A | 0.01 |
| G1U C18G G22C | 0.22 |
| G1U C15U C18A | 0.03 |
| G1U C13G U32C U38A | 0.05 |
| G1U C10G U20A A26C | 0.06 |
| G1U A4G A14U G30A A39C | 0.05 |
| G1U A4G C23G A24U G40C | 0.08 |
| G1U C10U G44U | 0.04 |
| G1U A6U A25C | 0.13 |
